Results as given in the BET-seq Pho4 binding data (Le et al. 2018).
Some of the results follow. The energies were worked out here from pooled read counts, against the library average; single values are noisy.

The sequences below were run against T1, Pho4 (S. cerevisiae) (UniProt P07270) (assay: relative binding free energy (BET-seq); higher = weaker binding). Details: reference: library average.
T1 sequence: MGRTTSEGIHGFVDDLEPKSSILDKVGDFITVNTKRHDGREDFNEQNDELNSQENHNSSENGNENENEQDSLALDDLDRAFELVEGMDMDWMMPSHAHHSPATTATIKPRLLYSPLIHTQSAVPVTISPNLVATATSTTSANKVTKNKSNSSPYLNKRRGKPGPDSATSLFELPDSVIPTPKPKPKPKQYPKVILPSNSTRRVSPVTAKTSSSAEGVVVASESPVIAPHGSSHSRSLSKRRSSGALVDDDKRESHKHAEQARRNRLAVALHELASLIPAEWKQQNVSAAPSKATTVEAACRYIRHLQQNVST

Sequence	relative binding free energy
ATGGACACGTGTTTAC	0.25 kcal/mol
TTAAACACGTGTGTCT	-0.05 kcal/mol
ATAGGCACGTGAGGGT	0.1 kcal/mol
GTTTTCACGTGGGAGG	0.32 kcal/mol
GAAGTCACGTGTGAGA	0.24 kcal/mol
CGGGGCACGTGGAGTC	-0.11 kcal/mol
AAGGTCACGTGCTGCG	0.19 kcal/mol
TGTTTCACGTGGCTGG	0.19 kcal/mol
TCAGTCACGTGATAGT	0.31 kcal/mol
CTGGACACGTGTCTGG	0.05 kcal/mol
AGGAACACGTGGAGCG	0.11 kcal/mol
TGTGCCACGTGGTTCG	0.08 kcal/mol
GGGGCCACGTGTTCTT	0.07 kcal/mol
AGACGCACGTGTGTGG	-0.1 kcal/mol
GGGGTCACGTGATGGA	0.31 kcal/mol
TATTCCACGTGGTTAA	0.01 kcal/mol
TTATGCACGTGCAGCG	0.03 kcal/mol
CAGGACACGTGTTGTT	0 kcal/mol
TTTAACACGTGTTTAC	0 kcal/mol
GCTGTCACGTGGGCGC	0.03 kcal/mol
GTGTCCACGTGTGTTG	0.08 kcal/mol
TGAGGCACGTGAGGAT	0.23 kcal/mol
TTAACCACGTGGGGTT	-0.08 kcal/mol

Sequence	relative binding free energy
CTAATCACGTGGGTGG	-0.01 kcal/mol
GGGGTCACGTGTGAAA	0.24 kcal/mol
TGTTGCACGTGACTGC	0.1 kcal/mol
GTGCACACGTGGGAGA	0.01 kcal/mol
AGTGTCACGTGCGGCT	-0.06 kcal/mol
GGCGACACGTGGGTTT	0.08 kcal/mol
TGTATCACGTGGTGTT	0.04 kcal/mol
CTTTACACGTGTGTGG	0.09 kcal/mol
TTGGTCACGTGACGGT	0.25 kcal/mol
CGTGTCACGTGTGGGT	0.09 kcal/mol
GGAGGCACGTGGACGG	-0.08 kcal/mol
TGAGGCACGTGCAGGG	-0.09 kcal/mol
GTTGTCACGTGGAGCT	0.08 kcal/mol
ACGTTCACGTGATGGT	0.19 kcal/mol
GTTGCCACGTGGTGGT	-0.14 kcal/mol
ACGTACACGTGGTAGT	-0.06 kcal/mol
CTGTTCACGTGTGCTT	0.25 kcal/mol
TAACGCACGTGGTGGG	-0.2 kcal/mol
GGGGACACGTGTTGGC	0.04 kcal/mol
CGACTCACGTGGGCGG	0.16 kcal/mol
AAATTCACGTGAGTGT	0.43 kcal/mol
AATCGCACGTGGGGGA	-0.19 kcal/mol
TGTTTCACGTGCAGAT	0.27 kcal/mol

Sequence	relative binding free energy
TTTAGCACGTGGGCAT	-0.22 kcal/mol
TTTCGCACGTGAGATT	0.23 kcal/mol
TGGAGCACGTGGGGCG	-0.2 kcal/mol
TCGGGCACGTGGACGT	-0.15 kcal/mol
ACTGGCACGTGGTTGA	-0.14 kcal/mol
CAGGGCACGTGATAGT	-0.08 kcal/mol
TGGATCACGTGTTTAC	0.1 kcal/mol
TGTGTCACGTGATGGC	0.3 kcal/mol
TCAGGCACGTGGGAAA	0.05 kcal/mol
GGTTCCACGTGAATGG	0.33 kcal/mol
AATGGCACGTGAAGAT	0.28 kcal/mol
TTAAACACGTGTGCGT	0.03 kcal/mol
GGAGGCACGTGTTGGC	-0.01 kcal/mol
TTAAGCACGTGTTAGC	-0.01 kcal/mol
TTACGCACGTGTTATG	-0.16 kcal/mol
CGTATCACGTGGGGTC	0.02 kcal/mol
TATCACACGTGGTGTG	-0.07 kcal/mol
CAGGGCACGTGGGAAA	-0.17 kcal/mol
TAGTGCACGTGTATCG	0.05 kcal/mol
GTAGTCACGTGAAATG	0.24 kcal/mol
TGTTGCACGTGAAAAT	0.31 kcal/mol
GGTTTCACGTGACGGT	0.22 kcal/mol
GGAGACACGTGCTTGG	-0.01 kcal/mol

Sequence	relative binding free energy
TTCTGCACGTGGTTCG	-0.02 kcal/mol
ATAGTCACGTGGGATA	0.14 kcal/mol
CGGGGCACGTGGCGGA	-0.2 kcal/mol
TATGGCACGTGTTTAA	-0.04 kcal/mol
TTGTCCACGTGCTGTG	-0.14 kcal/mol
TAAGCCACGTGGTGGG	-0.25 kcal/mol
TGGGTCACGTGGCGCC	0.16 kcal/mol
GTTTTCACGTGTATCT	0.31 kcal/mol
GGAATCACGTGAGGCT	0.3 kcal/mol
CTTATCACGTGTGGTT	0.25 kcal/mol
GGCTGCACGTGGCTGG	0.02 kcal/mol
CGAAGCACGTGAGGTT	0.22 kcal/mol
TTTTACACGTGTGACG	0.24 kcal/mol
AGTGTCACGTGTAGAA	-0.08 kcal/mol
AGTGTCACGTGCTGTG	-0.01 kcal/mol
TGTTACACGTGGTGAG	0.04 kcal/mol
ATGTGCACGTGGTGCG	-0.19 kcal/mol
ATTATCACGTGAAAAG	0.55 kcal/mol
CGTAGCACGTGTTGTT	-0.09 kcal/mol
GTTACCACGTGTGTTA	0.08 kcal/mol
TGTATCACGTGATACT	0.23 kcal/mol
GTGTGCACGTGGGGTT	-0.05 kcal/mol
TAGTTCACGTGGGGGC	0.2 kcal/mol

Sequence	relative binding free energy
TTGTGCACGTGCTCGG	-0.1 kcal/mol
CGTATCACGTGCTGTT	0.11 kcal/mol
TATAACACGTGATGTG	0.08 kcal/mol
CGTTCCACGTGGTGTT	-0.01 kcal/mol
TGGCTCACGTGCTGGG	0.06 kcal/mol
TGCGTCACGTGGGGCA	-0.1 kcal/mol
GGTGGCACGTGATCGT	0.01 kcal/mol
TCTCTCACGTGAGGGG	0.45 kcal/mol
AGTTTCACGTGTATTT	0.33 kcal/mol
TTAGTCACGTGTTAGA	0.19 kcal/mol
GGAGTCACGTGAGGGC	0.36 kcal/mol
TTCGTCACGTGTGAAG	0.11 kcal/mol
ATTAACACGTGAGTTT	0.3 kcal/mol
TTCGTCACGTGGGAGA	-0.1 kcal/mol
AGTAACACGTGGGCGA	-0.05 kcal/mol
AGAGTCACGTGCTGTG	0.07 kcal/mol
GTCTTCACGTGGATTA	0.27 kcal/mol
GACTGCACGTGTGTAG	-0.02 kcal/mol
GGGAGCACGTGCGTTA	-0.06 kcal/mol
GGATGCACGTGGGGAC	-0.1 kcal/mol
GGGCACACGTGTATGG	0.12 kcal/mol
GGAATCACGTGCGGGG	0.04 kcal/mol
TCTTACACGTGTTGTG	0.02 kcal/mol
